Among all 200,000 compounds or so, about 4,500 (2.2%) were called active. This list was built around the results that the source calls inconclusive (neither active nor inactive); the mix of calls is not that of the screen. Calls come from the whole dose curve; as a rule, active = well fitted inhibition curve with a large enough effect; inconclusive = small, poorly fitted or top-dose-only effect, or effect the other way; inactive = flat fitted curve, though single readings scatter. Potencies of inconclusive entries are doubtful fits and often do not repeat.
target: Cruzipain (Trypanosoma cruzi) (UniProt P25779); experiment: qHTS Assay for Promiscuous and Specific Inhibitors of Cruzain (without detergent); settings: purified cruzain, Z-FR-AMC fluorescence, no detergent; note: nearly all actives have a fitted effect of over 40% in size;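 for max response, negative = inhibition: plate controls were enzyme without inhibitor for no effect and buffer without enzyme for full effect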
In short: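 Detergent-free condition (0.00005% Triton X-100) in acetate buffer pH 5.5 with DTT. 1.5 nM enzyme and compound were pre-mixed 15 min, then 2 uM Z-FR-AMC substrate added; reaction progress from fluorescence change between first and third reads (60 s).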
Potency is the fitted concentration of half-maximal effect; tags give direction and shape of the fitted curve.

Sequence of UniProt P25779 (P25779 whole entry, looked up): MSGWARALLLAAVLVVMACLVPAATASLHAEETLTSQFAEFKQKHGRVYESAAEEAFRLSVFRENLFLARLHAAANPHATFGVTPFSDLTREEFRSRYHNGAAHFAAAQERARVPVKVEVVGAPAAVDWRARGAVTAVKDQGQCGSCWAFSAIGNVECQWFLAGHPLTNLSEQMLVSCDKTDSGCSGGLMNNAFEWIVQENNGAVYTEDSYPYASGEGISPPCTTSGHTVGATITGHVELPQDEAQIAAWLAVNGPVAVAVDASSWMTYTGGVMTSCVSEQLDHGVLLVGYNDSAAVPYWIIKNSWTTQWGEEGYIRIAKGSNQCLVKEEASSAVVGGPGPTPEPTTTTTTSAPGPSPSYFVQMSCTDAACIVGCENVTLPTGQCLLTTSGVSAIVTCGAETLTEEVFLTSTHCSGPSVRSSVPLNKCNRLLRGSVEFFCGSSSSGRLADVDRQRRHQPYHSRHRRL

Structure (SMILES)	Potency	max response, negative = inhibition
Cc1ccc(SCc2nc(-c3ccc(C(=O)NCc4ccccc4Cl)cc3)oc2C)cc1	inconclusive: 39.8 µM [inhibitor, single point]	
CC(C)Cc1ccc(C(C)C(=O)Nc2nccs2)cc1 (stereo not drawn)	active: 25.1 µM	
Cc1ccc2c(c1)-c1c(cnn1CC(=O)N1CCCN(Cc3ccccc3F)C1)CO2	inconclusive: 25.1 µM [activator, single point]	
CCOC(=O)c1c(N2C(=O)Nc3cc(Cl)c(Cl)cc3N2O)sc2c1CCCCC2		inactive: 13.7%
Cc1cc2cc(CNC(=O)Nc3cccc(Cl)c3)ccc2n1C	active: 12.6 µM	
COC(=O)[C@@]1(Cc2ccccc2)[C@H]2c3cc(C(=O)N(C)C)n(C[C@H](O)CO)c3C[C@H]2CN1C(=O)c1ccccc1	inconclusive: 31.6 µM [activator, single point]	
COc1ccc(S(=O)(=O)N2CCN(C(=O)COc3ccc4c(C)cc(=O)oc4c3)CC2)cc1	inconclusive: 31.6 µM [activator, single point]	
Cc1nc2c(-c3ccc(F)cc3)c(C)nn2c(C)c1CCC(=O)N1CCOCC1	inconclusive: 31.6 µM [activator, single point]	
CCCCCn1c(=O)[nH]c2cc(C(=O)Nc3ccc(OC)c(OC)c3)ccc2c1=O	inconclusive: 5.01 µM [activator, single point]	
N#Cc1ccc(NC(=O)c2nc(-c3ccccc3)n(-c3ccccc3)n2)cc1	inconclusive: 20 µM [activator, single point]	
N#Cc1ccccc1/C=N/Nc1nc(-c2ccccc2)c2cc(Cl)ccc2n1	inconclusive: 39.8 µM [inhibitor, single point]	
CCCCc1cc(=O)oc2c(CN(CC)CC)c(O)c(Cl)cc12	inconclusive: 39.8 µM [inhibitor, single point]	
CCCc1ccc(OCc2ccc(C(=O)N3CCN(c4ccccn4)CC3)o2)c(OC)c1	inconclusive: 25.1 µM [activator, single point]	
Cc1ccc(N(CC(=O)N2CCN(c3ccc(F)cc3)CC2)S(=O)(=O)c2c(C)nn(C)c2C)cc1	inconclusive: 12.6 µM [activator, partial curve]	
Cc1cc(Oc2ccc(C(F)(F)F)cc2[N+](=O)[O-])c2c3c(c(=O)oc2c1)CCCC3	inconclusive: 31.6 µM [inhibitor, single point]	
COc1ccccc1-c1nnc(C2CCN(S(=O)(=O)c3ccccc3)CC2)o1		inactive: -9.03%
O=C(c1cc(Cl)cc(Cl)c1)N1CCC(=O)N(C(COCc2ccccc2)Cc2ccccc2)CC1 (stereo not drawn)	inconclusive: 25.1 µM [activator, single point]	
O=C(Cn1c2ccccc2c(=O)c2ccccc21)N/N=C/c1ccc(N2CCCC2)c([N+](=O)[O-])c1	inconclusive: 31.6 µM [inhibitor, single point]	
C[C@@H](C(=O)Cc1ccc2ccccc2c1)[C@@H]1C[C@@]1(C)[C@@H](NP(=O)(c1ccccc1)c1ccccc1)c1ccccc1	inconclusive: 39.8 µM [inhibitor, single point]	

Structure (SMILES)	Potency	max response, negative = inhibition
N#Cc1ccc(-c2ccc(F)cc2)nc1SCC(=O)Nc1sc2c(c1C#N)CCC2	inconclusive: 39.8 µM [inhibitor, single point]	
Cc1ccc(OCC(=O)N(Cc2ccco2)Cc2ccco2)cc1C		inactive: -9.31%
COc1ccc(C2C(C(=O)Nc3ccccc3OC)=C(C)Nc3c(C(=O)Nc4ccccc4)cnn32)c(OC)c1 (stereo not drawn)		inactive: 3.62%
COC(=O)c1c(Oc2nc(OC)cc(OC)n2)cccc1Oc1nc(OC)cc(OC)n1	inconclusive: 39.8 µM [activator, single point]	
CC(=O)OC1CC2C(C)(C)C(O)C=C[C@@]2(C)C2CC[C@]3(C)C(=CC(=O)OC3c3ccoc3)[C@]12C (stereo partly drawn)	inconclusive: 31.6 µM [activator, single point]	
O=C(Nc1ccccc1N1CCCCC1)c1ncoc1-c1ccc(F)cc1	inconclusive: 39.8 µM [inhibitor, single point]	
Cc1ccc(NC(=O)C2CC(=O)N/C(=N/N=C/c3ccco3)S2)cc1C (stereo not drawn)	active: 12.6 µM	
CC(C)OC(=O)CSc1nnc(-c2cccnc2)n1Cc1ccccc1	inconclusive: 12.6 µM [inhibitor, partial curve]	
COc1ccc(-c2nnc3n(CCc4ccccc4)c(=O)c4ccccc4n23)cc1OC	inconclusive: 39.8 µM [activator, single point]	
CCOC(=O)c1cc(-c2ccc(OC)cc2)nc2c1c(C)nn2CCC#N		inconclusive: 173% [activator]
CSc1ccc(C2c3c(oc4cc(C)cc(C)c4c3=O)C(=O)N2CCO)cc1 (stereo not drawn)	inconclusive: 39.8 µM [activator, single point]	
COCCN(C(=O)CCCC(=O)Nc1ccccn1)C(C(=O)NC1CCCCC1)c1ccc(C)cc1 (stereo not drawn)	inconclusive: 31.6 µM [activator, single point]	
CC[C@@H](C)[C@@H](C(=O)Nc1ccc(C)cc1)N1Cc2ccccc2C1=O		inactive: 11.5%
OC1CN=C2CCCc3c2n(c2ccc(Cl)cc32)C1 (stereo not drawn)	inconclusive: 25.1 µM [inhibitor, single point]	
Cc1ccc(CN(C(=O)COc2ccc(Cl)cc2C)C2CCS(=O)(=O)C2)o1 (stereo not drawn)	inconclusive: 31.6 µM [activator, single point]	
Cc1ccc(NC(=O)c2cc3c(=O)n(Cc4ccco4)ccc3nc2C)cc1C	inconclusive: 39.8 µM [activator, single point]	
COc1cc2c(cc1NC(=O)COC(=O)[C@@H](NS(=O)(=O)c1cccc(Cl)c1)C(C)C)oc1ccccc12	inconclusive: 39.8 µM [inhibitor, single point]	
COc1ccc(OC)c2[nH]c(=O)c(CCNS(=O)(=O)c3ccc(Cl)cc3)cc12	inconclusive: 31.6 µM [activator, single point]	
CCOC(=O)c1c(NC(=O)COC)sc(C(C)=O)c1C	inconclusive: 39.8 µM [activator, single point]	

From PubChem BioAssay AID1476 (National Center for Advancing Translational Sciences (NCATS), 2009)
